Data reported in publication PMC7217878.
Results are given in words; binding and its absence hold for the method and conditions named. Binding seen in cells or lysates may run through a third protein. Some entries that bind do so weakly or less than the wild type.

Amino acid sequences for entries named in this document (tags omitted).
UniProt P09104: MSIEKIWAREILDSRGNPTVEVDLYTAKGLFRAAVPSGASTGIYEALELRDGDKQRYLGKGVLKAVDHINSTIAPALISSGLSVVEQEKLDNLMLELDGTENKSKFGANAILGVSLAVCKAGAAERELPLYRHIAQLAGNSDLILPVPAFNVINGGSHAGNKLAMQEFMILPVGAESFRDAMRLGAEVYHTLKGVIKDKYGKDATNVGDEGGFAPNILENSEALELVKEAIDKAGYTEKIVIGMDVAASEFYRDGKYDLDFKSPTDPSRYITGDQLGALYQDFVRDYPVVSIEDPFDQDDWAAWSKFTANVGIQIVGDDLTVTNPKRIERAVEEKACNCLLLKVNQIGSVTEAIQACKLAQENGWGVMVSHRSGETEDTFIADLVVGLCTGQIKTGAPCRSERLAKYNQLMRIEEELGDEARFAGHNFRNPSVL
UniProt Q92831: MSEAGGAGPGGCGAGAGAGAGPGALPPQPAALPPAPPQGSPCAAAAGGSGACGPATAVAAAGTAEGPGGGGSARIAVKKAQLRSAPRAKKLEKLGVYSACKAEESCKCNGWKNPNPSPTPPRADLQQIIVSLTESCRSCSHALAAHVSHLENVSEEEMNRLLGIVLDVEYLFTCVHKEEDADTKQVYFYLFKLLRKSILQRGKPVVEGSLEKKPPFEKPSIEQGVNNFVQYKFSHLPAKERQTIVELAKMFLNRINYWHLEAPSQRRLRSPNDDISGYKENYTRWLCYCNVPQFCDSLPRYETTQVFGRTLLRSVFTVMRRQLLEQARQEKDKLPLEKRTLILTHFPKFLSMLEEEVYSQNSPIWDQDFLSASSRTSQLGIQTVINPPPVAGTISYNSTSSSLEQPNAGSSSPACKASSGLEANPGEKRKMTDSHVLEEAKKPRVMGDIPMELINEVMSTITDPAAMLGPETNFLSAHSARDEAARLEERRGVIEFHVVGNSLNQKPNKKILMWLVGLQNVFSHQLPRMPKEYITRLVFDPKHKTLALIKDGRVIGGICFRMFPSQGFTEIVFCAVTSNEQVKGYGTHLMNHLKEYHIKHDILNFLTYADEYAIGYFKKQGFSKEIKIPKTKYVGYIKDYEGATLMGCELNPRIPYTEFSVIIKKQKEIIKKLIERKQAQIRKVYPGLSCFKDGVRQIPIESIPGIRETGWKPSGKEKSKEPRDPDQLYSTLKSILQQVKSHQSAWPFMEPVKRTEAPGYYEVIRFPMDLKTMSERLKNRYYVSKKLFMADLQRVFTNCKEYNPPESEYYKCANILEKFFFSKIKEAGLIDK
UniProt Q92830: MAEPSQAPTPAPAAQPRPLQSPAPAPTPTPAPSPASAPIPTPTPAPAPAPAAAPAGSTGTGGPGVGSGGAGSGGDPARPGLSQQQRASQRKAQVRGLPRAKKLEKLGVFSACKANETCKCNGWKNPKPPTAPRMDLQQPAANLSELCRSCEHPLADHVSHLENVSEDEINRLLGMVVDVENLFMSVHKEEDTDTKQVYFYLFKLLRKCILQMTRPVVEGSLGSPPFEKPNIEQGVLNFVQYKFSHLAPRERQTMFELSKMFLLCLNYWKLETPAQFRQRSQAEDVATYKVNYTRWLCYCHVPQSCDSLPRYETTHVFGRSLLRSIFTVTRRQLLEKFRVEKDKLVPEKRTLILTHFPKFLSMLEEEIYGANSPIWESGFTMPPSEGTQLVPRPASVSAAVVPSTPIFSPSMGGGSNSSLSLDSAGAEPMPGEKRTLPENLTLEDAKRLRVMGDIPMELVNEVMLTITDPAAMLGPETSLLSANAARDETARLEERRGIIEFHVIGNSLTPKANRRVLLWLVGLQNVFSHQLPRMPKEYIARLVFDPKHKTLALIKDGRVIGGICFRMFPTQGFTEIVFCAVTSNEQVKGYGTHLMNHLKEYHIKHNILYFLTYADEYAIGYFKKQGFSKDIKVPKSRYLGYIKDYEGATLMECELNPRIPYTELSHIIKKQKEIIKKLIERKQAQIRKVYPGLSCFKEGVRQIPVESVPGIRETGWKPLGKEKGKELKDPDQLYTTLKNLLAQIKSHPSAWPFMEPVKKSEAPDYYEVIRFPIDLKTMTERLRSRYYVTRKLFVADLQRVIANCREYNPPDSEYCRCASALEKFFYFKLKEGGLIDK
UniProt Q09472: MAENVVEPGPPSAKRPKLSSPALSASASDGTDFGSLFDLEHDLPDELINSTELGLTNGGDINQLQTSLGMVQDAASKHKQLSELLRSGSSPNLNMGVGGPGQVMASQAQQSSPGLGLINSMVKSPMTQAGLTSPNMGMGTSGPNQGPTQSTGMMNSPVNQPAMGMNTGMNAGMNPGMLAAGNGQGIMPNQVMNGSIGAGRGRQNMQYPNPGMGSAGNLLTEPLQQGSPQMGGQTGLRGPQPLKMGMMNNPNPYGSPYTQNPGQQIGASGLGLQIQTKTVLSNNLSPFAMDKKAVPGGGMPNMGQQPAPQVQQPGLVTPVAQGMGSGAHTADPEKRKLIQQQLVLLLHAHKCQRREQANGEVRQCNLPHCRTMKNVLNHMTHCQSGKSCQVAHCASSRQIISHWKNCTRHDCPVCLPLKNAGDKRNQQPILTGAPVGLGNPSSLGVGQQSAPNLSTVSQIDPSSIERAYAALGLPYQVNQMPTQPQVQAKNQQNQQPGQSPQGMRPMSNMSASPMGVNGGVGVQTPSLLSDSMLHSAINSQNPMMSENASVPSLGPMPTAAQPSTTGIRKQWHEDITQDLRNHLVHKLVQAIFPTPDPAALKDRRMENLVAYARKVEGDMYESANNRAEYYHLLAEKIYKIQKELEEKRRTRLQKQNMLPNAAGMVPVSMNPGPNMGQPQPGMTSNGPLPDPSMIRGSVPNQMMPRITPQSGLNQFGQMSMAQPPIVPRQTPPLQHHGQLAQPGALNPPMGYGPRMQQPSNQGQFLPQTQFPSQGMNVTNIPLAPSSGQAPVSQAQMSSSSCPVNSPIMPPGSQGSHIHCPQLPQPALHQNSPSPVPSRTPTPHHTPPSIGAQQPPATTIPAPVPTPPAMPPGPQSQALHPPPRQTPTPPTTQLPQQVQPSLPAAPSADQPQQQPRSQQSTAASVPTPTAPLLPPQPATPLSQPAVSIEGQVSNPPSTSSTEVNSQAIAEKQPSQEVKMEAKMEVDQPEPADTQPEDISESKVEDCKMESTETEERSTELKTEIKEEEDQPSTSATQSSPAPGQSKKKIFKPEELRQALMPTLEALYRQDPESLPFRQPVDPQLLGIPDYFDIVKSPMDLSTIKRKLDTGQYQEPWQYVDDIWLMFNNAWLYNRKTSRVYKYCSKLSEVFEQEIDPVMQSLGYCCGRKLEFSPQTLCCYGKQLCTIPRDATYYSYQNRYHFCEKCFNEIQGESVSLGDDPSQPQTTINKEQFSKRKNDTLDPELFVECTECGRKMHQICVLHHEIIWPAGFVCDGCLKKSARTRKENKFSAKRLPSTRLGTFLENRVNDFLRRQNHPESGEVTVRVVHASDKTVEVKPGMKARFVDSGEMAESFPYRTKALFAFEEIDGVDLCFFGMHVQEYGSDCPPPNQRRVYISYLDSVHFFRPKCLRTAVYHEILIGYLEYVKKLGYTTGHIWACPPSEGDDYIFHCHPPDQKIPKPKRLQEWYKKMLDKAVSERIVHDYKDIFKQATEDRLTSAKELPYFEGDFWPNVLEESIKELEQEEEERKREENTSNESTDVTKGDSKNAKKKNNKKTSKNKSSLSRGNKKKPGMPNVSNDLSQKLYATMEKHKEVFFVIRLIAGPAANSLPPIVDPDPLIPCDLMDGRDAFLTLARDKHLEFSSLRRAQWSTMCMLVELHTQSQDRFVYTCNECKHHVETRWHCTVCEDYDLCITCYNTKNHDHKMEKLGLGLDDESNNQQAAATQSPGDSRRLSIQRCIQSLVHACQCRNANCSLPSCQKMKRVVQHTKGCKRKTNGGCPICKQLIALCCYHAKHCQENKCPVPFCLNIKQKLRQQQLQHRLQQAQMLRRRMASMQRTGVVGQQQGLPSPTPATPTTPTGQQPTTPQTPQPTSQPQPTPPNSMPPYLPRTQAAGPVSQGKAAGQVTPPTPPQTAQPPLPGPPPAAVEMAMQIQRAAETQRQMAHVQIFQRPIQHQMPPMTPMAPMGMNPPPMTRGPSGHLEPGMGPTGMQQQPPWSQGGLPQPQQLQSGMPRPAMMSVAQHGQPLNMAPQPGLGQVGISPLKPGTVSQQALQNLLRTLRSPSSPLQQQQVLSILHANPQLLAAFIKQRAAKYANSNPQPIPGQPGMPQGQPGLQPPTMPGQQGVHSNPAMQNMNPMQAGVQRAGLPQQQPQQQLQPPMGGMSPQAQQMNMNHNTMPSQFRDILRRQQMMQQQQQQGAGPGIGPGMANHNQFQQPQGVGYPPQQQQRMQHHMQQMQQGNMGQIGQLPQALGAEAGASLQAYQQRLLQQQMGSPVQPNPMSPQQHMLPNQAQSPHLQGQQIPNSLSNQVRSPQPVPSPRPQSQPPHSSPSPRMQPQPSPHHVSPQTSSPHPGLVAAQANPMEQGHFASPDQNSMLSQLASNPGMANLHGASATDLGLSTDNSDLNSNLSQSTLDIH
UniProt O15379: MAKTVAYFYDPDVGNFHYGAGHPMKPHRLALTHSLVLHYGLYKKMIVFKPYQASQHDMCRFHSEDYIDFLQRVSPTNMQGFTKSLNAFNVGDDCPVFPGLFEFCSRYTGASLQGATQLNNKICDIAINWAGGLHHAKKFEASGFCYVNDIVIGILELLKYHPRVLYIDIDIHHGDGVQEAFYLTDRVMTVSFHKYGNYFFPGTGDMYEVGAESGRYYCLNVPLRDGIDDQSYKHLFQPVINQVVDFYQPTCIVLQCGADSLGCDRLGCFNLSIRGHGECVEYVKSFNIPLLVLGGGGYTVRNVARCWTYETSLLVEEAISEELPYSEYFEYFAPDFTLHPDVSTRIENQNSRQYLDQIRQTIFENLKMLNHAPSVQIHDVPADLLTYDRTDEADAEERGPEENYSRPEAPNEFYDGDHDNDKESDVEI
UniProt Q92993: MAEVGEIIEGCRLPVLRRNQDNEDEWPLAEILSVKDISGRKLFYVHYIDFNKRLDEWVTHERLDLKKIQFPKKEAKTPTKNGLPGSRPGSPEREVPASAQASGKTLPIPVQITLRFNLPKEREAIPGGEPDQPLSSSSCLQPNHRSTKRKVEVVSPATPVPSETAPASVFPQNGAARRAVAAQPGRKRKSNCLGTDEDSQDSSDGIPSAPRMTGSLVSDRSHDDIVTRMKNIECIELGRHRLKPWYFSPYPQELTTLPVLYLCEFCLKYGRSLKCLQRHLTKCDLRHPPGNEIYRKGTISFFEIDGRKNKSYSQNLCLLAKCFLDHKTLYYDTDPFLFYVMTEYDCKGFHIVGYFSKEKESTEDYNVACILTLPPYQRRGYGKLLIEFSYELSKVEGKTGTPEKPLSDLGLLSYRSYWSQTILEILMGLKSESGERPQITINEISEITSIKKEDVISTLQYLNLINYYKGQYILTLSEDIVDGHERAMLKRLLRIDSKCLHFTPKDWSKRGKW

Columns and labels:
[1] = target: endogenous ENO2 (enolase 2) (human (endogenous in Colo357)) (UniProt P09104); test: co-IP; Myc-tagged PCAF and endogenous ENO2 in PDAC cells; IP and western blot; which of the two was precipitated is not told
[2] = target: Flag-tagged ENO2 (enolase 2), wild type (UniProt P09104); test: co-IP; HEK293T cells co-expressing Flag-ENO2 and a Myc- or HA-tagged enzyme; lysis in NP-40 buffer (50 mM Tris-HCl pH 7.4, 150 mM NaCl, 0.5% NP-40); M2 anti-Flag agarose beads 3-5 h at 4 °C; western blot
[3] = target: endogenous ENO2 (enolase 2) (human (endogenous in Colo357)) (UniProt P09104); test: co-IP; Colo357 cells, both proteins endogenous; ENO2 immunopurified with ENO2 antibody and Protein A beads in NP-40 buffer; western blot for HDAC3

For “Myc-tagged PCAF expressed in PDAC cells (from UniProt Q92831 1-832) (enzyme)”, the binding [1] was “binds”.
In the case of “Myc-tagged GCN5 (from UniProt Q92830 1-837) (enzyme)”, the binding [2] is reported as “no binding”.
With “Myc-tagged PCAF (P300/CBP-associated factor) (from UniProt Q92831 1-832) (enzyme)” the binding [2] was “binds”.
In the case of “HA-tagged P300 (from UniProt Q09472 1-2414) (enzyme)”, the binding [2] is reported as “no binding”.
In the case of “HA-tagged HDAC3 (histone deacetylase 3), wild type (from UniProt O15379 1-428) (enzyme)”, the binding [2] is reported as “binds”.
With “endogenous HDAC3 (histone deacetylase 3) (from UniProt O15379 1-428) (enzyme)” the binding [3] was “binds”.
For “HA-tagged TIP60 (from UniProt Q92993 1-513) (enzyme)”, the binding [2] was “no binding”.
In the case of “HA-tagged CBP (from UniProt Q92793 1-2442) (enzyme)”, the binding [2] is reported as “no binding”.
